Measurements taken from article PMC4336329 (PLoS ONE, 2015).
The campaign covered roughly 310,000 compounds. About 2,200 (0.71%) showed an effect of 50% or more. The effect is printed as a negative number. The list shows a part of the results.

The compounds below were run against human ether-à-go-go-related gene (hERG) potassium channel (human, UniProt Q12809) (assay: primary screen, population patch clamp on CHO cells stably expressing hERG).
Sequence of human ether-à-go-go-related gene (hERG) potassium channel (Q12809 whole entry, looked up): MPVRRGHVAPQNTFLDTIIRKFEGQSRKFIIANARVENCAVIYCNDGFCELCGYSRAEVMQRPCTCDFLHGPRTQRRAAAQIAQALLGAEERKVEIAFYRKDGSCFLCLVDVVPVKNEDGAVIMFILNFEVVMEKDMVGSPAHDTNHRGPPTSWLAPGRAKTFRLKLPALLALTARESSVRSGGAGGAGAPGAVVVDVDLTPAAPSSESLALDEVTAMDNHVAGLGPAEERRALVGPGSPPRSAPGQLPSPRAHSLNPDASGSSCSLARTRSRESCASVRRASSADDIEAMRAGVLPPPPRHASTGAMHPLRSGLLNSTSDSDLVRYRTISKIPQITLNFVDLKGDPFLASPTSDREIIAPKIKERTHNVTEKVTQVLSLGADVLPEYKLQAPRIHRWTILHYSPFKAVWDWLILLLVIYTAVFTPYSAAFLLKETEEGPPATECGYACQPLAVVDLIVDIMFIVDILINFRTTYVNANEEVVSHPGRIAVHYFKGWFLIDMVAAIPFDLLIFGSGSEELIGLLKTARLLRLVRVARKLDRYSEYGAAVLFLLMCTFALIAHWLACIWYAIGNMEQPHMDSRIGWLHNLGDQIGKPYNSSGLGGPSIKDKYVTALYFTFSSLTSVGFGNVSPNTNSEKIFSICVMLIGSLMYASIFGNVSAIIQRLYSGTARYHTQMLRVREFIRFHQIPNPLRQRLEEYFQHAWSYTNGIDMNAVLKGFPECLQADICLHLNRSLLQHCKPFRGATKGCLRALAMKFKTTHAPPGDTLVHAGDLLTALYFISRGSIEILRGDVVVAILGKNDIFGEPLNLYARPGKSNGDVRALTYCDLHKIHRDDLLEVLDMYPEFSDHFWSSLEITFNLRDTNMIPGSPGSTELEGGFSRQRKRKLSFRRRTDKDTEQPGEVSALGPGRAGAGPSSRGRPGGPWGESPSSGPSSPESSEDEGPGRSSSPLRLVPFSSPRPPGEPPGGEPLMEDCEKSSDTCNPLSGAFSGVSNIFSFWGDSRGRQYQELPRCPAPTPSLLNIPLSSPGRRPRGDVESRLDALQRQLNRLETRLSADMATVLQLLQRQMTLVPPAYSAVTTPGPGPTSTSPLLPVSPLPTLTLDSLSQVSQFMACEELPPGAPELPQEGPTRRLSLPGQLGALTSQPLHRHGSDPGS

| SMILES | hERG current change (%, negative = inhibition) at 1uM [%] |
| --- | --- |
| O=[N+]([O-])c1cc([N+](=O)[O-])c2nonc2c1Nc1ccccc1O | 8.28 |
| COc1ccc(-n2c(O)c(/C(C)=N/Nc3ccccc3)c(=O)[nH]c2=O)cc1 | 7.9 |
| Cc1ccccc1S(=O)(=O)Cc1ccc(C(=O)NC(C)c2ccc3c(c2)OCCO3)o1 (stereo not drawn) | 7.17 |
| Cc1csc(NC(=O)/C=C/c2ccco2)n1 | 8.56 |
| Cc1sc2nc(SCC(=O)N3CCN(CCO)CC3)n(-c3ccccc3)c(=O)c2c1C | 7.1 |
| O=C(OCCN1C(=O)c2ccccc2C1=O)C1CCN(S(=O)(=O)c2cccs2)CC1 | 7.84 |
| CC(C)c1ccc(NC(=S)NC2CC3C=CC2C3)cc1 (stereo not drawn) | -7.38 |
| CN1C(=O)C(C)(C)c2cc(S(=O)(=O)N3CCCC3C(=O)NCc3ccccc3Cl)ccc21 (stereo not drawn) | 4.54 |
| Cc1ccc(-c2nn(CC(=O)Nc3ccc4c(c3)nc3n4CCOC3)c(=O)c3ccccc23)cc1 | -15.4 |
| CC(NC(=O)C(=O)N/N=C\c1cccc([N+](=O)[O-])c1)c1ccccc1 (stereo not drawn) | 7.56 |
| COc1nc(C)cc(C)c1S(=O)(=O)c1ccc(Cl)cc1 | 8.93 |
| COc1ccc(-c2csc(/C(C#N)=C\c3ccc(O)c([N+](=O)[O-])c3)n2)cc1OC | 10.7 |
| CC(C)C(NC(=O)CN1C(=O)c2cccc3cccc1c23)C(C)C | 16.4 |
| Cc1cccnc1NC(=O)CCNC(=O)c1ccccc1Cl | 48.8 |
| COc1oc(-c2ccccc2)nc1C(F)(F)F | 1.28 |
| C/C(CC(=O)Nc1cccc2c1CCCC2)=N\NC(=O)Cc1ccccc1 | 15.2 |
| Cc1csc(SCc2nc3scc(-c4ccccc4)c3c(=O)[nH]2)n1 | 5.18 |
| CCCCOC(=O)CSCC(=O)N1N=C(c2cccs2)CC1c1ccc(F)cc1 (stereo not drawn) | 1.7 |
| Cn1cc(/C=N/NC(=O)c2ccccc2O)c2ccccc21 | 9.93 |
| Cc1c(C(=O)NCc2ccccc2)oc2ccc(S(=O)(=O)N3CCC4(CC3)OCCO4)cc12 | 6.63 |
| CC(=O)Nc1ccc2ccccc2c1 | 8.01 |
| C[n+]1c2n(c3ccccc31)N=C(c1cc(C(C)(C)C)c(O)c(C(C)(C)C)c1)CS2.[Br-] | -63.5 |
| COc1ccc(N2CCN(c3nc4c(C)cccn4c(=O)c3/C=C(\C#N)C(N)=O)CC2)cc1 | 11.2 |
| O=C(Nc1ccccc1F)c1ccc2c(c1)CCN2S(=O)(=O)c1ccccc1 | 11.7 |
| CCCOC(=O)C1=C(C)OC23OC(N)=C(C#N)C12C(=O)c1ccccc13 (stereo not drawn) | -3.5 |
| Cc1ccc(C)c(NC(=O)NNC(=O)c2cc3ccccc3cc2O)c1 | -3.83 |
| COc1ccccc1NC(=S)N(Cc1cccnc1)Cc1ccccc1Cl | -2.97 |

| SMILES | hERG current change (%, negative = inhibition) at 1uM [%] |
| --- | --- |
| Cc1ccc(S(=O)(=O)N2CCOC23CCN(C(=O)c2ccc(Cl)cc2Cl)CC3)cc1 | 10.3 |
| N#C/C(=C(/O)Cc1cccc2ccccc12)c1nc2ccccc2s1 | 19.2 |
| CC1CCCCN1C(=O)Cn1cc(C(=O)c2ccco2)c2ccccc21 (stereo not drawn) | 7.18 |
| COc1ccc(C(=O)N2CCN(C3CCCCC3)CC2)c(OC)c1 | -75 |
| O=C(COc1ccc(/C=N/NC(=O)c2ccncc2)cc1)Nc1ccccc1 | 10.1 |
| COc1ccccc1NC(=O)Cc1noc(CSc2nnc(C)s2)n1 | 9.48 |
| Cc1ccc(NC(=O)C(C)[n+]2ccccc2)cc1[N+](=O)[O-].[Br-] (stereo not drawn) | 6.91 |
| CN(C)CCN(C(=O)C1CCN(S(=O)(=O)c2cccs2)CC1)c1nc2c(F)cccc2s1.Cl | 13.4 |
| O=C(CCC(=O)OC(C(=O)c1ccccc1)c1ccccc1)Nc1ccccc1 (stereo not drawn) | 4.13 |
| Cc1ccc(/C=C2/NC(=O)N(Cc3ccccc3)C2=O)s1 | -0.227 |
| Cc1ccc2nc3c(c(Nc4ccccc4)c2c1)CCC3.Cl | -19.6 |
| CSc1nsc(/C=C/Nc2ccc(Cl)cc2)c1C#N | 11.8 |
| Cc1c2cc(O)c(=O)cc-2oc2cc(O)c(O)cc12 | -1.04 |
| COc1ccc(C(=O)NCc2nnc(SCC(=O)Nc3nnc(C)s3)o2)cc1 | 4.45 |
| O=Nc1c(O)n(Cc2ccc(Cl)cc2Cl)c2ccccc12 | 7 |
| Cc1cc(Cl)nc(Cl)c1C(=O)NCCc1ccccc1 | 4.19 |
| Cc1cccc(NC(=O)c2ccc3[nH]c(=O)c(=O)[nH]c3c2)n1 | 5.04 |
| Cc1ccc(N(CC(=O)NCc2ccc3c(c2)OCO3)S(=O)(=O)c2c(C)noc2C)cc1 | 9.76 |
| N#Cc1c(NC(=O)CSC2=NCCS2)sc2c1CCCC2 | -0.832 |
| CCOc1ccccc1NC(=S)NCCc1ccc(F)cc1 | 8.54 |
| CC(=O)NC(=S)Nc1ccc(NC(=S)NC(=O)c2ccc([N+](=O)[O-])cc2)cc1 | 16.5 |
| O=C(Nc1ncccn1)c1cc([N+](=O)[O-])cc([N+](=O)[O-])c1 | 1.23 |
| Cc1ccc(Cl)cc1N1CCN(S(=O)(=O)c2c(C)[nH]c(=O)[nH]c2=O)CC1 | 10.5 |
| COc1cccc(-c2cc(N)nn2C(=O)Nc2ccc(Cl)cc2)c1 | -2.38 |
| O=c1c(-c2ccc(Cl)cc2)[n+]([O-])c2ccccc2n1O | 14.8 |
| CC1Cc2ccccc2N1c1ncnc2c1nnn2Cc1ccccc1 (stereo not drawn) | 5.31 |
| CC(=O)N1c2ccc(S(=O)(=O)N3CCC(C(=O)NC(C)c4ccccc4)CC3)cc2CC1C (stereo not drawn) | 10.1 |
